From the supplement of paper PMC4604168 (melanoma cell lines) come the findings set out here.

Molecules are shown by their SMILES. Some of the results follow. Many values rest on one well or one pass, so single values are uncertain.

Test systems include WM115; WM1716; WM1745; WM3526; WM3619; WM451Lu.
Common to all, as to assay: cell count relative to DMSO control; melanoma cells; higher = more viable cells
Holding throughout (details): library dose: low library concentration; 72 h
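Also: cell number obtained by counting DAPI-stained nuclei in high-throughput microscope images with image analysis software, screen run in 1,536-well plates.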

Consider `Cn1cc(C2=C(c3cn(C4CCN(Cc5ccccn5)CC4)c4ccccc34)C(=O)NC2=O)c2ccccc21` [Enzastaurin] + Cc1ccc(NC(=O)c2cccc(N(C)C)c2)cc1NC(=O)c1ccc(O)cc1 [ZM336372] (first compound 0.8 µM, partner dose 2 µM), for which the cell count with WM115 worked out at 107%; with WM1716 it was 120%; in the assay with WM1745, 87.7%; with WM3526, 84.4%; with WM3619 it was 107%; with WM451Lu, 114%.
Regarding `C[As](C)SC[C@H](NC(=O)CC[C@H](N)C(=O)O)C(=O)NCC(=O)O` [Darinaparsin] + O=C1NC(=O)/C(=C/c2ccc(-c3ccc(F)cc3O)o2)S1 [AS252424] (first compound 0.4 µM, partner dose 1 µM), the cell count with WM115 is 99.9%; in the assay on WM1716, 106%; in the assay on WM1745, 86.2%; in the assay on WM3526, 111%; in the assay with WM3619 it was 119%; in the assay on WM451Lu, 104%.
For `N.N.[Cl][Pt][Cl]` [cisplatin] + O=C(O)c1ccc2c(c1)nc(Nc1cccc(Cl)c1)c1ccncc12 [CX4945] (first compound 1.6 µM, partner dose 0.4 µM), the cell count with WM115 came to 118%; with WM1716, 91.5%; in the assay with WM1745 it was 98.7%; in the assay on WM3526, 137%; with WM3619, 81.9%; with WM451Lu, 114%.
`C[C@]12O[C@H](C[C@]1(O)CO)n1c3ccccc3c3c4c(c5c6ccccc6n2c5c31)CNC4=O` [Lestaurtinib] + CC1(C)NC(=O)N(c2ccc([N+](=O)[O-])c(C(F)(F)F)c2)C1=O [nilutamide] (first compound 0.004 µM, partner dose 1 µM): the cell count in the assay on WM115 worked out at 107%; with WM1716 it was 103%; in the assay on WM1745, 101%; with WM3526, 82.6%; in the assay on WM3619, 114%; in the assay with WM451Lu it was 96.5%.
With `C[C@]12O[C@H](C[C@]1(O)CO)n1c3ccccc3c3c4c(c5c6ccccc6n2c5c31)CNC4=O` [Lestaurtinib] + C=C(c1ccc(C(=O)O)cc1)c1cc2c(cc1C)C(C)(C)CCC2(C)C [Bexarotene] (first compound 0.004 µM, partner dose 2 µM), the cell count with WM115 stood at 97.6%; with WM1716, 97.5%; in the assay with WM1745 it was 87.1%; with WM3526 it was 70.3%; with WM3619, 109%; with WM451Lu, 103%.
Consider `C[C@]12O[C@H](C[C@]1(O)CO)n1c3ccccc3c3c4c(c5c6ccccc6n2c5c31)CNC4=O` [Lestaurtinib] + Nc1nc(F)nc2c1ncn2[C@@H]1O[C@H](CO)[C@@H](O)[C@@H]1O [fludarabine] (first compound 0.004 µM, partner dose 0.2 µM), for which the cell count in the assay with WM115 stood at 92.6%; with WM1716, 98.2%; in the assay with WM1745, 89.1%; with WM3526 it was 27.7%; with WM3619, 90.3%; in the assay on WM451Lu, 60.7%.
As to `C[C@]12O[C@H](C[C@]1(O)CO)n1c3ccccc3c3c4c(c5c6ccccc6n2c5c31)CNC4=O` [Lestaurtinib] + Cn1nnc2c(C(N)=O)ncn2c1=O [temozolomide] (first compound 0.004 µM, partner dose 2 µM), the cell count in the assay on WM115 was found to be 95%; in the assay with WM1716 it was 100%; with WM1745 it was 87.8%; in the assay on WM3526, 88.1%; in the assay with WM3619 it was 97.8%; in the assay on WM451Lu it was 102%.
As for `Cn1cc(C2=C(c3cn(C4CCN(Cc5ccccn5)CC4)c4ccccc34)C(=O)NC2=O)c2ccccc21` [Enzastaurin] + Nc1ccn([C@@H]2O[C@H](CO)[C@@H](O)C2(F)F)c(=O)n1 [gemcitabine] (first compound 0.8 µM, partner dose 0.0004 µM), the cell count in the assay with WM115 worked out at 111%; in the assay on WM1716 it was 121%; with WM1745, 78.7%; with WM3526, 79.9%; with WM3619, 90.5%; in the assay on WM451Lu it was 101%.
With `Cn1cc(C2=C(c3cn(C4CCN(Cc5ccccn5)CC4)c4ccccc34)C(=O)NC2=O)c2ccccc21` [Enzastaurin] + COc1cc2ncnc(Nc3ccc(Oc4ccccc4)cc3)c2cc1OC [SrcI1] (first compound 0.8 µM, partner dose 2 µM), the cell count in the assay on WM115 was 112%; in the assay on WM1716, 112%; in the assay on WM1745 it was 89.4%; in the assay with WM3526 it was 107%; in the assay on WM3619, 82.7%; in the assay with WM451Lu, 119%.
For the molecule `C[As](C)SC[C@H](NC(=O)CC[C@H](N)C(=O)O)C(=O)NCC(=O)O` [Darinaparsin] + O=C(Nc1ccccc1)c1cc([N+](=O)[O-])ccc1Cl [GW9662] (first compound 0.4 µM, partner dose 2 µM), the cell count is 93.7% with WM115; 104% in the assay with WM1716; 114% with WM1745; 122% in the assay on WM3526; 81.4% with WM3619; 109% in the assay with WM451Lu.
Turning to `N.N.[Cl][Pt][Cl]` [cisplatin] + CC(C)CCN1c2nc(Nc3cc(F)c(O)c(F)c3)ncc2N(C)C(=O)C1C [BID1870] (first compound 1.6 µM, partner dose 0.2 µM), the cell count in the assay on WM115 amounted to 97.1%; in the assay on WM1716, 102%; with WM1745 it was 101%; with WM3526 it was 94.7%; with WM3619, 74.6%; with WM451Lu, 77.9%.
Regarding `Cn1cc(C2=C(c3cn(C4CCN(Cc5ccccn5)CC4)c4ccccc34)C(=O)NC2=O)c2ccccc21` [Enzastaurin] + CS(=O)(=O)c1ccc(C(=O)Nc2ccc(Cl)c(-c3ccccn3)c2)c(Cl)c1 [vismodegib] (first compound 0.8 µM, partner dose 1 µM), the cell count amounted to 103% with WM115; 102% with WM1716; 103% with WM1745; 109% in the assay with WM3526; 117% in the assay with WM3619; 101% in the assay with WM451Lu.
For the molecule `C[As](C)SC[C@H](NC(=O)CC[C@H](N)C(=O)O)C(=O)NCC(=O)O` [Darinaparsin] + N#Cc1c(O)c2c(-c3ccc(-c4ccccc4O)cc3)csc2[nH]c1=O [A769662] (first compound 0.4 µM, partner dose 2 µM), the cell count in the assay with WM115 is 99.4%; in the assay with WM1716, 94.5%; with WM1745, 92.1%; in the assay on WM3526, 90.2%; in the assay on WM3619 it was 82%; in the assay on WM451Lu, 102%.
In the case of `N.N.[Cl][Pt][Cl]` [cisplatin] + O=C(O)[C@@H]1[O][Sb](=[O])([O][Sb]2(=[O])[O][C@H]([C@H](O)CO)[C@H](O)[C@H](C(=O)O)[O]2)[O][C@H]([C@H](O)CO)[C@@H]1O [stibogluconate] (first compound 1.6 µM, partner dose 2 µM), the cell count with WM115 amounted to 89.4%; in the assay on WM1716 it was 84.2%; with WM1745 it was 83.9%; in the assay with WM3526, 86.8%; in the assay on WM3619 it was 90.4%; in the assay with WM451Lu, 105%.
`C[C@]12O[C@H](C[C@]1(O)CO)n1c3ccccc3c3c4c(c5c6ccccc6n2c5c31)CNC4=O` [Lestaurtinib] + C[C@]1(c2nc3c(C(N)=O)cccc3[nH]2)CCCN1 [Veliparib] (first compound 0.004 µM, partner dose 1.4 µM): the cell count with WM115 came to 94.3%; with WM1716, 94%; in the assay on WM1745, 85.9%; with WM3526, 95.4%; in the assay on WM3619, 98.8%; in the assay with WM451Lu, 116%.
With `C[As](C)SC[C@H](NC(=O)CC[C@H](N)C(=O)O)C(=O)NCC(=O)O` [Darinaparsin] + Cc1ccc(NC(=O)c2cccc(N(C)C)c2)cc1NC(=O)c1ccc(O)cc1 [ZM336372] (first compound 0.4 µM, partner dose 2 µM), the cell count in the assay with WM115 amounted to 104%; in the assay with WM1716, 114%; with WM1745, 112%; with WM3526, 93.8%; with WM3619, 142%; in the assay on WM451Lu it was 112%.
For the molecule `C[C@]12O[C@H](C[C@]1(O)CO)n1c3ccccc3c3c4c(c5c6ccccc6n2c5c31)CNC4=O` [Lestaurtinib] + COc1cc(Nc2ncc(F)c(Nc3ccc4c(n3)NC(=O)C(C)(C)O4)n2)cc(OC)c1OC [Tamatinib] (first compound 0.004 µM, partner dose 0.4 µM), the cell count with WM115 is 93.9%; in the assay on WM1716 it was 107%; in the assay on WM1745, 69.7%; in the assay with WM3526, 89.9%; in the assay with WM3619, 104%; in the assay on WM451Lu it was 93%.
`C[C@]12O[C@H](C[C@]1(O)CO)n1c3ccccc3c3c4c(c5c6ccccc6n2c5c31)CNC4=O` [Lestaurtinib] + CO[C@@H]1[C@H](N(C)C(=O)c2ccccc2)C[C@H]2O[C@]1(C)n1c3ccccc3c3c4c(c5c6ccccc6n2c5c31)C(=O)NC4 [Midostaurin] (first compound 0.004 µM, partner dose 0.08 µM): the cell count in the assay with WM115 was determined as 88.8%; in the assay on WM1716 it was 94.3%; in the assay with WM1745, 93.2%; in the assay with WM3526, 87.6%; in the assay with WM3619 it was 86.9%; in the assay with WM451Lu, 86.4%.
Consider `Cn1cc(C2=C(c3cn(C4CCN(Cc5ccccn5)CC4)c4ccccc34)C(=O)NC2=O)c2ccccc21` [Enzastaurin] + COC(=O)c1sccc1S(=O)(=O)Nc1ccc(Nc2ccccc2)cc1OC [GSK0660] (first compound 0.8 µM, partner dose 1 µM), for which the cell count in the assay on WM115 stood at 122%; with WM1716, 113%; in the assay on WM1745 it was 88.8%; in the assay on WM3526 it was 90.6%; with WM3619, 157%; in the assay with WM451Lu, 112%.
As to `N.N.[Cl][Pt][Cl]` [cisplatin] + COc1cc(Nc2ncc(F)c(Nc3ccc4c(n3)NC(=O)C(C)(C)O4)n2)cc(OC)c1OC [Tamatinib] (first compound 1.6 µM, partner dose 0.4 µM), the cell count with WM115 worked out at 83.6%; with WM1716, 85.6%; in the assay on WM1745, 70.4%; in the assay on WM3526 it was 66.3%; in the assay on WM3619, 72.9%; with WM451Lu, 84%.
For `C[C@]12O[C@H](C[C@]1(O)CO)n1c3ccccc3c3c4c(c5c6ccccc6n2c5c31)CNC4=O` [Lestaurtinib] + CNC(=O)c1cc(Oc2ccc(NC(=O)Nc3ccc(Cl)c(C(F)(F)F)c3)cc2)ccn1 [sorafenib] (first compound 0.004 µM, partner dose 0.4 µM), the cell count with WM115 stood at 98%; in the assay with WM1716, 106%; in the assay with WM1745 it was 86.7%; with WM3526 it was 89.3%; with WM3619 it was 89%; with WM451Lu it was 80.6%.
On to `Cn1cc(C2=C(c3cn(C4CCN(Cc5ccccn5)CC4)c4ccccc34)C(=O)NC2=O)c2ccccc21` [Enzastaurin] + N.N.[Cl][Pt][Cl] [cisplatin] (first compound 0.8 µM, partner dose 1.6 µM), for which the cell count with WM115 amounted to 102%; with WM1716 it was 92.3%; in the assay with WM1745 it was 84.9%; with WM3526, 108%; in the assay with WM3619, 95.4%; in the assay on WM451Lu, 92.7%.
With `Cn1cc(C2=C(c3cn(C4CCN(Cc5ccccn5)CC4)c4ccccc34)C(=O)NC2=O)c2ccccc21` [Enzastaurin] + N#Cc1c(O)c2c(-c3ccc(-c4ccccc4O)cc3)csc2[nH]c1=O [A769662] (first compound 0.8 µM, partner dose 2 µM), the cell count in the assay with WM115 is 124%; with WM1716, 114%; with WM1745, 83.6%; in the assay on WM3526, 108%; in the assay on WM3619 it was 134%; in the assay with WM451Lu, 117%.
`N.N.[Cl][Pt][Cl]` [cisplatin] + CCc1ccc(CCOc2ccc(CC3SC(=O)NC3=O)cc2)nc1 [pioglitazone] (first compound 1.6 µM, partner dose 2 µM): the cell count with WM115 turned out to be 95.4%; in the assay with WM1716 it was 79.1%; with WM1745 it was 97.6%; in the assay on WM3526, 78.9%; in the assay with WM3619, 102%; in the assay with WM451Lu, 85.7%.
Take `Cn1cc(C2=C(c3cn(C4CCN(Cc5ccccn5)CC4)c4ccccc34)C(=O)NC2=O)c2ccccc21` [Enzastaurin] + Nc1nc(F)nc2c1ncn2[C@@H]1O[C@H](CO)[C@@H](O)[C@@H]1O [fludarabine] (first compound 0.8 µM, partner dose 0.2 µM): the cell count in the assay with WM115 stood at 103%; in the assay with WM1716, 120%; in the assay with WM1745 it was 98.4%; in the assay on WM3526 it was 33.3%; in the assay on WM3619 it was 84.5%; in the assay with WM451Lu it was 76.3%.
